# Values joined by “and” are separate entries in the source; they are usually repeats but may differ in a detail not shown here. Equal entries are not always repeated.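 Five compound concentrations were applied to cells in 96-well plates for 48 hours; endpoints were derived by simple linear interpolation of the resulting dose-response curve. GI50: concentration for 50% inhibition of growth. TGI: concentration producing complete growth inhibition.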
# Test system: NCI-H322M lung
# Assay: DTP human tumour cell line panel, 48 h
SMILES,GI50,TGI
CC(C)C[C@H](NC(=O)[C@@H]1CCCCCCCCCCC(=O)N[C@@H](CC(=O)N2CCC[C@@H]2C2CCCC2)C(=O)N1)B(O)O,0.0145 µM and 0.0168 µM,0.0369 µM and 0.115 µM
Cc1cccc(-c2nc(Nc3cccc(S(N)(=O)=O)c3)c3ccccc3n2)c1,> 100 µM,> 100 µM
Brc1ccc(N/N=C/c2c[nH]c3ccccc23)nc1,> 100 µM,> 100 µM
O=C(NO)c1ccc(CN2CCN(c3nc(-c4ccccc4)c4ccccc4n3)CC2)cc1,6.73 µM,> 23.7 µM
O=C1Nc2cc(Cl)ccc2/C1=C/c1ccc(OCc2ccc(Br)cc2F)cc1,4.43 µM,19.3 µM

# — PubChem BioAssay (NCI)
